Data published in the RNAGym collection of RNA variant scans (doi:10.7554/elife.90254).
The source gives no read counts; variants with many changes may rest on few reads.

B1: OR4K15 (parent)
chain: GUUAACGGUCAUAGGCCAUGGAAACUAGGAGCACCAUUUCGCUGCCAGUGAAGAAAUGAACAAAGAAAAUCUGGGCCAGGCAGGCAUCAAAAGAAAUAGUCUUGCGCUCAACCAGAAAGUCUGUAAUCAUUUUAAGGGUA

Variants of: B1
Experiment: self-cleavage, relative activity (ratio to wild type); higher = more cleavage; in vitro, sequencing; the parent is a self-cleaving ribozyme

Variant	self-cleavage
GUUAACGGUCAUAGGCCAUGGAAACUAGGAACUCCAUUUCGCCGCCAGUGAAGAGAUGAGCGAAGAAAAUCUGGGCCAGGCAGGCAUCAAGAGAAAUAGUCUUGCGCUCAACCAGAAAGUCUGUAAUCAUUUUAAGGGUA	0.59
GUUAACGGUCAUAGGCCAUGGAAACUAGGGGCACCAUUUCGCUGCCAGUGAAGAAAUGAACAAAGAAAAUCUGGGCCAGGCAGGCAUCAAAAGAAGUAGUCUUGCGCUCAACCAGAAAGUCUGUAAUCAUUUUAGGGGUA	1.82
GUUAACAGUCAUAGGCCACGGAAACUAGGAGCACCAUUUCGCUGCCAGUGAAGAAAUGAACAAAGAAAAUCUGGGCCAGGCUGGCAUCAAAAGAAAUAGUCUUGCGCUCAACCAGAAAGUCUGUAAUCAUUUUAAGGGUA	0.16
GUUAACGGUCAUAGGCCAUGGAAACUGGGAGCACCAUUUCGCUGCCAGUGAAGAAAUGAACAAAGAAAAUCUGGGCCAGGCAGGCAUCAAAAGUAAUAGUCUUGCGCUCAACCGGAAAGUCUGUAAUCAUUUUAAGGGUA	0.37
GUUAACGGUCAUGGGCCAUGGAAACUAGGAGCACCAUUUCGCUGCCAGUGAAGAAAUGAACAAAGAAAAUCUGGGCCAGGCAGGCAUCAAAAGAAACAGUCUUGCGCUCAACCAGAAGGUCUGUAAUCAUUUUAAGGGUA	0.32
GUUAACGGUCACAGGCCAUGGAAACUAGGAGCACCGUUUCGCUGCCAGUGAAGAAAUGAACAAAGAAAAUCUGGGCCAGGCAGGCAUCAAAAGAGAUAGUCUUGCGCUCAACCAGAAAGUCUGUAAUCAUUUUAAGGGUA	1.42
GUUAACGGUCAUAGGCCAUGGAAACUAGGAGCACCAUUUCGCCGCCAGUGAAGAAAUGAACAAAGAAAAUCUGGGCCAGGCAGGCAUCAAAAGAAAUAGUCUUGCGCUCAACCAGAAAGCCUGUAAUCGUUUUAAGGGUA	0.46
GUUAACGGUCGUAGGCCAUGGAAACUAGCAGCACCUUUUCGCUGCCAGUGAAGAAAUGAACAAAGAAGAUCUGGGCCUGGCAGGCAUCGAAAGAAAUAGUCUUGCGCCCAACCAGAAAGCCUGUAAUCAUUUUAGGGGUA	0
GUUAGCGGUCAUAGGCCAUGGAAACUAGGAGCACCAUUUCGCUGCCAGUGAAGAAAUGAACAAAGUAAAUCUGGGCCAGGCAGGCAUCAAAAGAAAUAGUCUUGCGCUCAACCAGAAAGUCUGGAAUCAUUUUAAGGGUA	0.66
GUUAGCGGUCAUAGGCCAUGGAAACUAGGAGCACCAUUUCGCUGCCAGUGAAGAAAUGAACAAAGAAAAUCUGGGCCAGGCAGGCAUCAAAAGAAAUCGUCUUGCGCUCAACCAGAAAGUCUGUAAUCAUUUUAAGGAUA	0.58
GUUAACGGUCAUAGGCCAUGGAAACUAGGAGCACCAUUUCGCUGCCAGUGGAGAAAUGAACAAAGAAAAUCUGGGCCAGGCAGGCAUCAAGAGAAAUAGUCUUGCGCUCAACCAGAAAGUCUGUAAUCAUUUUGAGGGCA	1.24
GUUAACGGUCAUAGGCCAUGGAAACUAGGAGCACCAUUUCGCUGCCAGUGAAGAAAUGAACAAAGAAAAUCUGGGCCAGGCAGGCACCAAAAGAAAUAGUCUUGCGCUCAACCAGUAGGUCUGUAAUCAUUUUAAGGGUA	0.03
GUUAACGGUCAUAGGCCAUGGAAACUGUGAGCACCAUUUCGCUGCCAGUGAAGAAAUGAACAAAGAAAAUCUGGGUCAGGCAGGCAUCAAAAGAAAUAGUCUUGCGCUCAACCAGAAAGUCUGUAAUCAUUUUAAGGGUA	0.11
GUUAACGGUCAUAGGCCAUGGAAGCUAGGAGCACCAUUUCGCUGCUAGUGAGGAAAUGAACAAAGAAAACCUGGGCCAGGCAGGCAUCAAAAGAAAUAGUCUUGCGCUCAACCAGAAAGUCUGUAAUCAUUUUAAGGGUA	0.29
GUUAACGGUCAUAGGCCAUGGAAUCUAGGAGCACCAUCUCGCUGCCAGUGAAGAAAUGAACAAAGAAAAUCUGGGCCAGGCAGGCAUCAAAAGAAAUAGUCUUGCGCUCAACCAGAAAGUCUGUAACCAUUUCAAGGGUA	1.99
GUUAACGGCCAUAGGCCACGGAAACUAGGAGCACCAUUUCGCGGCCAGUGAAGAAAUGAACAAAGAAAAUCUGGGCCAGGCAGGCAUCAAAAGUAAUAGUCUUGCGCUCAACCAGAAAGUCUGUAAUCAUUUUAAGGGUA	1.9
GUUAACGGUCAUAGGCCAUGGAAACUAGGAGCACCAUUUCGCUGCCAGUGAAGUGAUGAACAAAGAAAACCUGGGUCAGGCAGGCAUCAAAAGAAAUAGUCUUGCGCUCAACCAGAAAGUCUGUAAUCAUUUUAAGGGUA	0.08
GUUAACGGCCAUAGGCCAGGGAAACUAGGAGCACCAUUUCGCUGCCGGUGAAGAAAUGAACAAAGAAAAUCUGGGCCAGGCAGGCAUCAAAAGAAAUGGUCUUGCGCUCAACCAGAAAGUCUGUAAUCAUUUUAAGGGUA	0.34
GUUAACGGUCAUAGGCCAUGGAAACUAGGAGCACCAUUUCGCUGCCAGUGGAGAAAUGAACAAAGAAAAUCUGGGCCAGGCAGGCAUCAAAAGAAAUAGUCUUGCGCUCGACCGGAAAGUCUGUAAUCAUUUUAAGGGUA	0.09
GUUAACGGUCAUAGGCCAUGGAAACUAGGAGCACCAUUUCGCUGCCAGUGAAGAAAUGAACAAAGAAAAUCUGGGCCAGGCAGGCAUCAAAAGAAAUAGCCUUGCGCUCAGCCAGAAAGUCUGUAAUCAUCUUAAGGGUA	0.01
GUUAACGGUCAUAGGCCAUGGAAACUAGGAGCACCAUUUCGCUGCCAGUGAAGAAAUGAACAAAGAAAAUCUGGGCCAGGCCGGCAUCAGAAGAAAUGGUCUUGCGCGCAACCAGAAAGUCUGUAAUCAUUUUAAGGGUA	0

Variant	self-cleavage
GUUAACGGUCAAAGGCCAUGGAAACUAGGAGCACCAUUUCGCUGCCAGUGAAGAAAUGAACAAUGAAAAUCUGGGCCAGGCAGGCAUCAAAAGAAAUAGUCUUGCGCUCAACCAGGAAGUCUGUAAUCAUUUUAAGGGUA	0.59
GUUAACGGUCAUAGGCCAUGGAAACUAGGAGCACCAUUUCGCCGCCAGUGAAGAAAUGAACAAAGAGAAUCUGGGCCAGGCAGGCAUCAAAAGAAGUAGUCUUGCGCCCAGCCAGAAAGUCUGUAAUCAUUUUAAGGGUA	0.01
GUUAACGGUCAUAGGCCACGGAAACUAGGAGCACCAUUUCGCUGCCAGUGAAGAAAUGGACAAAGAAAAUCCGGGCCGGGCAGGCAUCAAAAGAAAUAGUCUUGCGCUCAACCAGAAAGUCUGUAAUCAUUUUAAGGGUA	0.31
GUUAACGGUCAUAGGCCAUGGAAACUAGGAGCACCAUUUCGCUGCCAGUGAAGAAAUGAACAAAGAAAAUCUGCGCCAGGCAGGCAUCAAAAGAAGUAGUCUUGCGCUCAACCAGAAAGUCUGUAGUCAUUUUAAGGGUA	0.18
GUUAACGGUCAUAGGCCAUGGAAACUAGGGACACCAUCUCGCUGCCAGUGAAGAAAUGAACAAAGAAAAUCUGGGCCAGGCAGGCAUCAAAAGAAGUAGUCAUGCGCUCAACCAGAAAGUCUGUAAUCAUUUUAAGGGUA	0.37
GUUAACGGUCAUAGGCCAUGGAAACUAGGAGCACCAUUUCGCUGCCAGUGAAGAAAUGAUCAAGGAAAAUCUGGGCCAGGCAGGCAUCAAAAGAAAUAGUCUUGCGCUCAACCAGAAAGUCUGUGAUCAUUUUAAGGGUG	1.24
GUUAACGGUCAUAGGCCAUGGAAACUAGGGGCACCAUUUCGCAGCCAGUGAAGAAAUGAACAAAGAAAAUCUGGGCCAGGCAGGCAUCAGAAGAAAUAGUCUUGCGCUCAACCAGAAAGUCCGUAAUCAUUUUAAGGGUA	1.04
GUUAACGGUCAUAGGCCAUGGAAACUAGGAGCACCUUUUCGCCGCCAGUGAAGAAAUGAACAAAGAAAAUCUGGGCCAGGCAGGCAUCGAAAGAAAUAGUCUUGCGCUCAAUCAGAAAGUCUGUGAUCAUUUUAAGUGUA	0.01
GUUAACGGUCAUAGGCCAUGGAAACUAGGAGCACCAUUUCGCUGCCAGUGAAGAAAUGAACAAAGAAAAUCUGGGCCAGGCAGGCAUCAAAGGAAAUAGUCUUGCGCUCCACCAGAAGGUCUGUAGUCAUUUUAAGGGUA	0.03
GUUAACGGUCGUAGGCCAUGGAAACUAGGAGCACCGUUUCGCUGCCAGUGGAGAAAUGAACAAAGAAAAUCUGGGCCAGGCUGGCAUCAAAAGAAGUAGUCUUGCGCUCAACCAGAAAGUCUGUAAUCAUUUUAAGGGUA	0.36
GCUAACGGUCAUAGGCCAUGGAGACUAGGAGCACCAUUUCGCUGCCAGUGGAGAAAUGAGCAAAGAAAAUCUGGGCCAGGCAGGCAUCAAAAGAAAUAGUCUCGCGCUCAACCAGAAAGUCUGUAAUCAUUUUAAGGGUA	0.67
GUUAACGGUCAUAGGCCAUGGAAACUAGGAGCACCAUUUCACUGCCAGUGAAGAAAUGAACAAAGAAGAUCUGGGCCUGGCAGGCAUCAAAAGAAAUAGUCUUGCGCUCCACCAGAAAGCCUGUAACCAUUUUAAGGGUA	0.01
GUCAACGGUCAUAGGCCAUGGAAACUAGGAGCACCAUUUCGCUGCCAGUGAAGAAAUGAACAAAGGAAAUCUGGGCCAGGCAGGCAUCUAAAGAAAUAGUCUUGCGCUCGACCAGAAAGUCUGUAAUCAUUUUAAGGGUA	0.34
GUUAACGGUCAUAGGCCAUGGAAACUAGGAGCACCUUUUCGCUGCCAGUGAAGAAACGAACGAAGAAAAUCUGGGCCAGGCAGGCAUCAAAGGAAAUAGUCUUGCGCUCAACCAGAAAGUCUGUAAUCAUUCUAAGGGUA	0.54
GUUAACGGUCAUAGGCCAUGGAAACUAGGAGCACCGUUUCGCUGCCAGUGAAGAAAUGAACAAAGUAAAUCUGGGCCAGGCAGGCAUCAGAAGAAAUAGUCUUGCGCUCAACCAGAAAGUCUGUAAUCAUUUUAAGGGUA	1.88
GUUAACGGUCAUAGGCCGUGGAAACUAGGAGCACCAUUUCGCUGCCAGUGAAGAAAUGAACAAAGAAAAUCUGGGCCAGGCAGGCAUCAAAAGAGAUAGUCUUGCGCUCAACCAGAAAGCCUGUAAUCAUUUUAAGGGUA	1.13
GUUAACGGACAUAGGCCAUGGAAACUAGGAGCACCAUUUCGCUGCCAGUGAAGAAAUGAACAAAGAAAGUCAGGACCAGGCAGGCAUCAAAAGAAAUAGUCUUGCGCUCAACCAGAAAGUCUGUAAUCAUUUUAAGGGUA	0.14
GUUAACGGUCAUAGGCCAUGGAAACUAGGAGCACCAUUUCGCUGCCAGUGAAGAAAUGAACGAAGAAAAUCUGGGCCAGGCAGGCAUCAAAAGAAAUAGUCUCGCGCACAACCAGAAAGUCUGUAAUCAUUUUAAGGGUA	0.01
GUUAACGGUCAUAGGCCAUGGUAACUAGGAGCACCAUUUCGCUGCCAGUGAAGAAAUGAGCAAAGAAAAUCUGGGCCAGGCAGGCAUCAAAAGAAAUAGUCUUGCGCUCAACCAGAAUGUCAGUAAUCAUUUUAAGGGUA	1.38
GUUAACGGUCAUAGGCCAUGGAAACUAGGAGCACCAUUUCGCUGUCAGUGGAGAAAUGAACAAAGAAAUUCUGGGCCAGGCAGGCAUCCAAAGAAAUAGUCUUGCGCUCAACCAGAAAGUCUGUAAUCAUUUUAAGGGUA	1.85
